The source gives no read counts; variants with many changes may rest on few reads.
B1: OR4K15 (parent)
chain: GUUAACGGUCAUAGGCCAUGGAAACUAGGAGCACCAUUUCGCUGCCAGUGAAGAAAUGAACAAAGAAAAUCUGGGCCAGGCAGGCAUCAAAAGAAAUAGUCUUGCGCUCAACCAGAAAGUCUGUAAUCAUUUUAAGGGUA

Variants of: B1
Experiment: self-cleavage, relative activity (ratio to wild type); higher = more cleavage; in vitro, sequencing; the parent is a self-cleaving ribozyme

Variant	self-cleavage
A66U G74U A126G	0.16
A67G A94G A110G A135G	0.04
A67G G80A U108A	0.02
A78G A96G A129G	0.11
A78U A116G U133C	0.15
A67G A95G A96G U120C U132G	0.42
U72A A98G A118G	0.02
G80A U124C A125G	0.16
A68G A82U A111U	0.03
A69G A118G G123A	1.4
A78G U108A A126U	0.02
A68G A114C A125C A126C	0.01
A78G U102C A116G U139C	0.12
U70C A96G A118G U122C	0.26
A68G A78U A94U A95G U108C A126G A129U	0
A82G A94G U108C U127C	0
A68G A129G U131C	1.42
G74U A86G A110G A140G	0.04
A68G U103C A116U A129U	0.01
A78U A82G U132C	0.07
A67G U103C U122C	0.13

Variant	self-cleavage
A82G A91G U127C	0.13
U70A U87A U102C	2.04
A78G A90G A116C	0
A69G A91G U97C U103C U131C	0.16
A68G A69G U100C U122C	0.9
A78G A94G U102C	0.26
A78U C107G A116G C128A	0.03
A82G U100C A116G	0.38
U70C U97C G138U	0.54
C81U U100A A110C	0.02
U70C U100C U127C	1.95
A82G A96G U103G U122C U131C	0.03
A68G G106C U120A	0.02
A78G U87A A89G A114G U122G G137U	0.02
U72A A91G A92G A117G	0.1
A67U G80C G83A	0.06
A68G U87C U132C	0.65
A68G A91G A110G	0.14
U72A U87C A114C	0.03
A68G A96G A118U	0.92
A67U A98G A114G	0.24

Variant	self-cleavage
U72G A86G A116U	0.04
A78G U130C A134G	0.13
U72C G84C A86G A129U	0.02
A78U A92U U127A	0.6
A67G A82C A86G	0.19
A68G U102C A114G	0.39
A67G A89G A117G	1.53
A68G A86G A95G A116G	1.11
U72C A95G A116G U131C	0.09
A68G G74U U122C	0.17
A67G U100C U108A	0
U72A A98G A117U U124A	0.01
U70A A90G U102C A110G	0.1
U72G A91G A114G A140G	0.04
A69G U72C A117G A118U U122C	0.05
U72A U102C U139C	0.12
A82C A89G U120A	0.09
A68G U87C A95G	0.68
A67G A69G U97C	1.04
A69U U70A A92U A116G	1.3
A78G A86G A89G A90G	0.22

Variant	self-cleavage
G75A A91C U133C	0.09
A68G A69G U108C U124A	0
A67G U72A A116G A126G	0.1
U70C A92G A96U	0.52
U72A G83U A92G A118G U122C A125U	0.04
U72G A111G A117G U139A	0.02
A68G A89U U100C U120C A129G	1.42
A78G A91G U120C	0.06
A67G U87C A134G	1.25
A68U A78U A118G	0.04
A68G U102A U108C	0
G75C A91G U130C	0.08
A67G A82U A96U	0.19
G74A A78U U130C	0.14
A78U A92G A134G	0.32
A67U G104A A110G	0
A69G A90U U132A	1.58
A82C A90G A126G	0.1
A67G A82U U139A	0.15
A68G U120A U130C	0.89
